From the supplement of paper PMC11417369
± gives the standard deviation of the averaged measurements. The list shows a part of the results.

tested on: PfAP2-G AP2 domain (GST-tagged); assay: gcPBM binding intensity (ln(normalized median fluorescence intensity)); higher = stronger DNA binding
Summary of the method: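 GST-fused DNA-binding domains of P. falciparum, expressed in E. coli, were applied at about 25 μg on average for 1 h to an Agilent 4 × 180k array of primer-extended double-stranded 36-bp intergenic genomic probes and negative controls. Binding intensity is the highest Masliner-normalised natural-log median intensity across replicate spots of either probe orientation, measured with Alexa488 anti-GST antibody and a 488 nm scan.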

| Sequence | gcPBM binding intensity (ln) |
| --- | --- |
| ATATTAGAAATATGAATAGAAAGAATATATAAGTAT [CACACA_negctrl_site682] | 9.76 ± 0.37 |
| ATTCTACACCCACATACACACATATATATATATATA [CACACA_site3426] | 10.3 ± 0.23 |
| TGTTCAAATTTATTCGATCTTTATATTTAATAAAAC [CACACA_negctrl_site781] | 9.76 ± 0.071 |
| TTTTTTTTTTTTTGGTGTACTTTTTTTAGAACGCAA [XGTACX_site4207] | 11.6 ± 1.2 |
| AAAAATGAAAGGTGTACACATACAAACATAGAAAGA [CACACA_site5020] | 11.7 ± 0.94 |
| AAAATTTATATAGGCACACAAATAAATTAATACATA [CACACA_site1418] | 10.2 ± 0.26 |
| TTTTTTCTTTCTTTCAAACACACATTAATTTTATTC [CACACA_site2733] | 9.86 ± 0.21 |
| ATTCAGTTCTATAATACACACATATATTGACATTAT [CACACA_site7309] | 10.1 ± 0.11 |
| ATATTCTTCTAAAGGCGTACATCTACATTTATGAAA [XGTACX_site2145] | 11.4 ± 0.96 |
| GTTAGCTCGTTCGGAGCACACACATATATATATATA [CACACA_site8595] | 10.3 ± 0.37 |
| AGATACTTTCCTCAAACACACAAAACTATACAACAA [CACACA_site1474] | 10.3 ± 0.32 |
| TTTGATGGTACACGTACACACCTTGCAAATATTTTT [CACACA_site4645] | 11.8 ± 1 |
| TGAAAGAACCTGATTACACACATAAATTATATATAT [CACACA_site26] | 9.8 ± 0.11 |
| TGTATGTTGTAAAATTGTACATATATATTATATTTA [XGTACX_site4883] | 11 ± 0.33 |
| ATGAATATAATAAAGAAACACACGTATACATAATGA [CACACA_site1355] | 10.3 ± 0.11 |
| AAAAGATAATTATGCACACACACACCCAGACACAAC [CACACA_site5428] | 10.6 ± 0.53 |
| AATTATATTCTATTCACACATATTCCAACCTCTTTT [CACACA_site4670] | 10.02 ± 0.021 |
| TGTATTCATACATGCACACGTACATATTTAAATATA [CACACA_site3926] | 11.3 ± 0.7 |
| AGTTCTTCGTACCAAAAAACGGCACGCATATGTATA [TGCATGCA_negctrl_site469] | 10.6 ± 0.38 |
| TCTATTCAAAATAAAAGTACTAGCATGTGAATTGTT [XGTACX_site5530] | 11.2 ± 0.76 |
| TACAAGTTTTTAAAGTGTACCAAAAAAAAAGAATAA [XGTACX_site979] | 11.3 ± 0.76 |
| TTCATTTATTTACTTACACACTTTATATATGTGGTT [CACACA_site4901] | 10 ± 0.15 |

| Sequence | gcPBM binding intensity (ln) |
| --- | --- |
| TATTTCAAAAAAAAAAAAAATAAAAAACAACAACAA [CACACA_negctrl_site893] | 9.96 ± 0.35 |
| AAAAAAAATTATATATGTACTTATTAATCCTTATAT [XGTACX_site1389] | 11.3 ± 0.85 |
| ATTTATATATCGCCCACACACATGTGATTATTTATA [CACACA_site6905] | 10.34 ± 0.035 |
| TACTACTATCTATATTGTACAAAAGGTGCCTACAAA [XGTACX_site4267] | 10.9 ± 0.39 |
| ATATATAAAATATACACACATACTGTTCATTTAAAG [CACACA_site4169] | 9.935 ± 0.049 |
| AAGAGAAATTATAACATGTGAAATGTATTATATATA [TGCATGCA_negctrl_site254] | 9.58 ± 0.37 |
| ATTTATATATAATATACACACATATAATCCACATAT [CACACA_site699] | 10.15 ± 0.035 |
| AAAAATAAAAAAATGACACACATATATATATATATA [CACACA_site2307] | 10.1 ± 0.35 |
| TATCTCTTATTTTATTGTACTTAACTATGCTATAAT [XGTACX_site4904] | 11.3 ± 0.66 |
| TAAGTATAATATTGATGTACATATAATAACTTGTAT [XGTACX_site417] | 11.2 ± 0.59 |
| CATATGATATGTTATACACACACGTATATATGAATT [CACACA_site3446] | 10.2 ± 0.071 |
| TAGTTAACAAATAATGCACACAAATGGATAAAATTA [CACACA_site9240] | 10.17 ± 0.057 |
| ATTCAAATTGTAGAAACACACAAAAACTTAACATAT [CACACA_site2617] | 10.06 ± 0.014 |
| ATGAACATACAATATACACACATATATATTTATATT [CACACA_site4609] | 9.96 ± 0.057 |
| AAGGGAAAATTAAGGTTGCACTAAAAATATATCTTT [GTGCAC_site9608] | 9.9 ± 0.014 |
| AGATACGATTATATGCGTTCAATATACCAAATAATT [TGCATGCA_negctrl_site501] | 10.1 ± 0.2 |
| CACGCGCCCGGACACACACACACACCCATATATATA [CACACA_site5251] | 10.8 ± 0.57 |
| GAATAAATATTAAATGTGCACTTGAATAGATGTAAA | 10.2 ± 0.17 |
| TTTTTCATCATATGTTGTACAATGTGTAGATATATT [XGTACX_site3195] | 11.2 ± 0.76 |
| GATAAATGTATATATGCATGCACATATATTTATACA [TGCATGCA_site748] | 9.83 ± 0.071 |
| CGTAGCCACACTAACACACACAAATATACACAATCA [CACACA_site7379] | 10.2 ± 0.23 |
| ATTTAAATAACGTATGTATATACATATATATATATA [TGCATGCA_negctrl_site207] | 10.1 ± 0.43 |
